# Measured values published in PMC4336329 (PLoS ONE, 2015).
# Screen size: about 310,000 compounds; about 2,200 (0.71%) showed an effect of 50% or more. Effects have a minus sign here. The list shows a part of the results. Where a SMILES comes first, the peptide text is derived from it. [ ]: non-standard residue; d: D form. The star is where a group is joined. Hyp = O=C(O)[CH]1C[CH](O)CN1; Cbz = O=C(OCc1ccccc1)*; OBn = c1ccc(CO*)cc1
# Molecular target: human ether-à-go-go-related gene (hERG) potassium channel (human, UniProt Q12809)
# Sequence (Q12809 whole entry, looked up): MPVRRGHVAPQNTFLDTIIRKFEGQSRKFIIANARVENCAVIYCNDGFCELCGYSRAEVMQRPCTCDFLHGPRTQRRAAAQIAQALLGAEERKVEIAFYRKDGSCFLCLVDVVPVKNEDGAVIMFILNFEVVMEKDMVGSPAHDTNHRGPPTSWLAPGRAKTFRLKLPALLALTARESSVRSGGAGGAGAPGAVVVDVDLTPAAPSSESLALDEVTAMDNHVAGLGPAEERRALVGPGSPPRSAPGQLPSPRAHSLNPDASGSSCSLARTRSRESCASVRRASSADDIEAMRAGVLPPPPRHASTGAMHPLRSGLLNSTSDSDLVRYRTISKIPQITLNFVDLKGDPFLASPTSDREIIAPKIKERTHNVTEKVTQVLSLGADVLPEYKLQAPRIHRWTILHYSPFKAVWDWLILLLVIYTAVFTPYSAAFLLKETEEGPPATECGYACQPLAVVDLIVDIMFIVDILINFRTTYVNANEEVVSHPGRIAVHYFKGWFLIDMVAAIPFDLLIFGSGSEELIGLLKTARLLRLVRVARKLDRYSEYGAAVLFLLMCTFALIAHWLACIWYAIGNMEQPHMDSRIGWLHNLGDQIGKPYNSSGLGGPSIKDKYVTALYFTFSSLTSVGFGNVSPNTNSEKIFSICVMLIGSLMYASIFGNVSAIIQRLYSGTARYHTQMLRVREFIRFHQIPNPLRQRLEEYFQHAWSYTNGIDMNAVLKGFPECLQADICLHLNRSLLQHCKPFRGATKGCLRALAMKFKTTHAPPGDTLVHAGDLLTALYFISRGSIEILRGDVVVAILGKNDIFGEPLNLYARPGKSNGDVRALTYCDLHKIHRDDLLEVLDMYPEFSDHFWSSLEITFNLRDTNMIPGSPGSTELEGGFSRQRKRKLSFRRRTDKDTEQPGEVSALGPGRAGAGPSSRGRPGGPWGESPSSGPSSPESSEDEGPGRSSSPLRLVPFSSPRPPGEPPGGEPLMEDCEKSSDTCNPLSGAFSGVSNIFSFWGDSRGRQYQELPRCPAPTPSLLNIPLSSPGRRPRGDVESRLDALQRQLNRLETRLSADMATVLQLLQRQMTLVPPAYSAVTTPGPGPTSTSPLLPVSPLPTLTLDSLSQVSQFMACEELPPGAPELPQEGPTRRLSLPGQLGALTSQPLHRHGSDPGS
# Assay: primary screen, population patch clamp on CHO cells stably expressing hERG
row,SMILES,"hERG current change (%, negative = inhibition) at 1uM"
1,Cc1ccc(CNCc2cccnc2)s1.Cl,11.7%
2,O=C(NCC(=O)N1CC(O)CC1C(=O)N1CC(O)CC1C(=O)OCc1ccccc1)OCc1ccccc1 (stereo not drawn) (Cbz-Gly-[Hyp]-[Hyp]-OBn; configuration not given here),6.96%
3,O=C(CCNS(=O)(=O)c1ccc(OC(F)(F)F)cc1)N1CCN(C/C=C/c2ccccc2)CC1,-21.4%
4,O=[n+]1c2c(n([O-])c3cc(F)c(N4CCCC4)cc31)CCC2,11.5%
5,COc1ccc(/C=C/C(=O)c2ccc([N+](=O)[O-])o2)cc1,13.3%
6,c1ccc(N2OCC3Cn4c(nc5ccccc54)C32)cc1 (centres unmarked),-1.3%
7,COc1ccc(C(=O)NCCCc2nc3ccccc3n2Cc2cc(C)ccc2C)cc1OC,0.238%
8,CCCc1c(C)nn(-c2ncccc2[N+](=O)[O-])c1C,11.4%
9,Nc1ncc2c(n1)-c1ccoc1CC2,19.2%
10,Cc1cccn2cc(CCNS(=O)(=O)c3cccs3)nc12,3.71%
11,CCOC(=O)CN(C(=O)CNC(=O)c1cccs1)C(C(=O)NC1CCCC1)c1cccnc1 (centres unmarked),8.77%
12,O=C(O)c1ccc2oc(=O)c(S(=O)(=O)c3ccccc3)cc2c1,15.5%
13,Cc1cc(C(=O)N2CCCC(C(=O)c3cccc(C(F)(F)F)c3)C2)nc(C)n1 (centres unmarked),1.4%
14,CCOC(=O)CSC1=C(C#N)C(c2ccccc2OCC)C(C(=O)OCC)C(=O)N1 (centres unmarked),9.29%
15,O=C(c1cc(=O)[nH]c2ccccc12)N1CCN(S(=O)(=O)c2ccc(Cl)cc2)CC1,6.19%
16,N#Cc1cc2c(nc1SCC(=O)Nc1ccc(Cl)cc1)C1CCN2CC1,1.04%
17,CCOC(=O)Cn1nc(C)c([N+](=O)[O-])c1C,14.2%
18,COc1ccc(CNC(=O)CN(Cc2ccc(Cl)cc2)C(=O)c2csnn2)cc1,-14.8%
19,COc1ccc(-c2nc(-c3ccccc3OC)no2)cc1OC,0.656%
20,COc1ccc(C(C(=O)NCC2CCCO2)N(C(=O)CNC(=O)c2ccco2)c2ccccc2)cc1OC (centres unmarked),6.09%
21,COc1ccc(NC(=O)C2CCN(S(C)(=O)=O)CC2)cc1,7.76%
22,O=C(O)C(=O)O.O=C(c1cccc(F)c1)N1CCC(N2CCOCC2)CC1,10.3%
23,CCOc1ccccc1C1NC(=O)c2ccccc2O1 (centres unmarked),5.28%
